Where a chain is given by its changes, count along the chain named. Some of the results follow.
B1: UUAUACG (DNA:RNA)
RNA: GGGAGACCGGAAUUCAGAUUGUCCUUAUACGUUAAAUCCCGUCGUAGCCACCA
DNA 1: CAATCTGAATTCCGGTCTCCC
DNA 2: TGGTGGCTACGACGGGATT
B2: ACGUAGG (DNA:RNA)
RNA: B1 RNA with U25A, U26C, A27G, C30G
DNA 1: CAATCTGAATTCCGGTCTCCC
DNA 2: TGGTGGCTACGACGGGATT
B3: AGGGACA (DNA:RNA)
RNA: B1 RNA with U25A, U26G, A27G, U28G, G31A
DNA 1: CAATCTGAATTCCGGTCTCCC
DNA 2: TGGTGGCTACGACGGGATT
B4: UGAACCA (DNA:RNA)
RNA: B1 RNA with U26G, U28A, A29C, G31A
DNA 1: CAATCTGAATTCCGGTCTCCC
DNA 2: TGGTGGCTACGACGGGATT
B5: AUAUCAC (DNA:RNA)
RNA: B1 RNA with U25A, A29C, C30A, G31C
DNA 1: CAATCTGAATTCCGGTCTCCC
DNA 2: TGGTGGCTACGACGGGATT
B6: CAUUCAC (DNA:RNA)
RNA: B1 RNA with U25C, U26A, A27U, A29C, C30A, G31C
DNA 1: CAATCTGAATTCCGGTCTCCC
DNA 2: TGGTGGCTACGACGGGATT
B7: GCGGGCG (DNA:RNA)
RNA: B1 RNA with U25G, U26C, A27G, U28G, A29G
DNA 1: CAATCTGAATTCCGGTCTCCC
DNA 2: TGGTGGCTACGACGGGATT
B8: UGAUGAC (DNA:RNA)
RNA: B1 RNA with U26G, A29G, C30A, G31C
DNA 1: CAATCTGAATTCCGGTCTCCC
DNA 2: TGGTGGCTACGACGGGATT
B9: UCGCUCC (DNA:RNA)
RNA: B1 RNA with U26C, A27G, U28C, A29U, G31C
DNA 1: CAATCTGAATTCCGGTCTCCC
DNA 2: TGGTGGCTACGACGGGATT
B10: CAGCACA (DNA:RNA)
RNA: B1 RNA with U25C, U26A, A27G, U28C, G31A
DNA 1: CAATCTGAATTCCGGTCTCCC
DNA 2: TGGTGGCTACGACGGGATT
B11: GAUGUCC (DNA:RNA)
RNA: B1 RNA with U25G, U26A, A27U, U28G, A29U, G31C
DNA 1: CAATCTGAATTCCGGTCTCCC
DNA 2: TGGTGGCTACGACGGGATT
B12: AGUUUGU (DNA:RNA)
RNA: B1 RNA with U25A, U26G, A27U, A29U, C30G, G31U
DNA 1: CAATCTGAATTCCGGTCTCCC
DNA 2: TGGTGGCTACGACGGGATT
B13: UAGAAGU (DNA:RNA)
RNA: B1 RNA with U26A, A27G, U28A, C30G, G31U
DNA 1: CAATCTGAATTCCGGTCTCCC
DNA 2: TGGTGGCTACGACGGGATT
B14: GUCACAA (DNA:RNA)
RNA: B1 RNA with U25G, A27C, U28A, A29C, C30A, G31A
DNA 1: CAATCTGAATTCCGGTCTCCC
DNA 2: TGGTGGCTACGACGGGATT
B15: AGAGCUA (DNA:RNA)
RNA: B1 RNA with U25A, U26G, U28G, A29C, C30U, G31A
DNA 1: CAATCTGAATTCCGGTCTCCC
DNA 2: TGGTGGCTACGACGGGATT
B16: UCGUAGU (DNA:RNA)
RNA: B1 RNA with U26C, A27G, C30G, G31U
DNA 1: CAATCTGAATTCCGGTCTCCC
DNA 2: TGGTGGCTACGACGGGATT
B17: CUAAAAA (DNA:RNA)
RNA: B1 RNA with U25C, U28A, C30A, G31A
DNA 1: CAATCTGAATTCCGGTCTCCC
DNA 2: TGGTGGCTACGACGGGATT
B18: GAGUGCU (DNA:RNA)
RNA: B1 RNA with U25G, U26A, A27G, A29G, G31U
DNA 1: CAATCTGAATTCCGGTCTCCC
DNA 2: TGGTGGCTACGACGGGATT
B19: AGGUUUU (DNA:RNA)
RNA: B1 RNA with U25A, U26G, A27G, A29U, C30U, G31U
DNA 1: CAATCTGAATTCCGGTCTCCC
DNA 2: TGGTGGCTACGACGGGATT
B20: GCGGGUU (DNA:RNA)
RNA: GGGAGACCGGAAUUCAGAUUGUCCGCGGGUUUUAAAUCCCGUCGUAGCCACCA
DNA 1: CAATCTGAATTCCGGTCTCCC
DNA 2: TGGTGGCTACGACGGGATT
B21: CCCGUUA (DNA:RNA)
RNA: B20 RNA with G25C, G27C, G29U, U31A
DNA 1: CAATCTGAATTCCGGTCTCCC
DNA 2: TGGTGGCTACGACGGGATT
B22: ACAUCAA (DNA:RNA)
RNA: B1 RNA with U25A, U26C, A29C, C30A, G31A
DNA 1: CAATCTGAATTCCGGTCTCCC
DNA 2: TGGTGGCTACGACGGGATT
B23: CUGAAAC (DNA:RNA)
RNA: B1 RNA with U25C, A27G, U28A, C30A, G31C
DNA 1: CAATCTGAATTCCGGTCTCCC
DNA 2: TGGTGGCTACGACGGGATT
B24: CCAGUAC (DNA:RNA)
RNA: B20 RNA with G25C, G27A, G29U, U30A, U31C
DNA 1: CAATCTGAATTCCGGTCTCCC
DNA 2: TGGTGGCTACGACGGGATT
B25: GUGCGAG (DNA:RNA)
RNA: B20 RNA with C26U, G28C, U30A, U31G
DNA 1: CAATCTGAATTCCGGTCTCCC
DNA 2: TGGTGGCTACGACGGGATT
B26: AGAAGCC (DNA:RNA)
RNA: B1 RNA with U25A, U26G, U28A, A29G, G31C
DNA 1: CAATCTGAATTCCGGTCTCCC
DNA 2: TGGTGGCTACGACGGGATT
B27: AAGAGGA (DNA:RNA)
RNA: B20 RNA with G25A, C26A, G28A, U30G, U31A
DNA 1: CAATCTGAATTCCGGTCTCCC
DNA 2: TGGTGGCTACGACGGGATT
B28: ACGAACA (DNA:RNA)
RNA: B20 RNA with G25A, G28A, G29A, U30C, U31A
DNA 1: CAATCTGAATTCCGGTCTCCC
DNA 2: TGGTGGCTACGACGGGATT
B29: UAAGCUG (DNA:RNA)
RNA: B1 RNA with U26A, U28G, A29C, C30U
DNA 1: CAATCTGAATTCCGGTCTCCC
DNA 2: TGGTGGCTACGACGGGATT
B30: AAGGAAA (DNA:RNA)
RNA: B20 RNA with G25A, C26A, G29A, U30A, U31A
DNA 1: CAATCTGAATTCCGGTCTCCC
DNA 2: TGGTGGCTACGACGGGATT
B31: GGCCAUA (DNA:RNA)
RNA: B20 RNA with C26G, G27C, G28C, G29A, U31A
DNA 1: CAATCTGAATTCCGGTCTCCC
DNA 2: TGGTGGCTACGACGGGATT

These binders were tested against T1, RBFOX1 RRM (Homo sapiens, UniProt Q9NWB1 109-208) (assay: EMSA; HiTS-Eq, 1 nM pool, 10 min; buffer printed only for the single-RNA assays: 10 mM Tris pH 7.5, 150 mM NaCl, 3.4 mM EDTA, 0.001% NP-40, 30 C). Conditions: tags: His6 N-terminal (pET28a); label: 5' 32P.
T1 sequence: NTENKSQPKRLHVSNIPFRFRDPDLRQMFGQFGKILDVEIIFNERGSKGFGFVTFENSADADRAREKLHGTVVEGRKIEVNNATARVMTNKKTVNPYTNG
Outline: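 Purified RbFox RRM, wild type or mutant, was incubated for 10 min in 50 µL with 1 nM of a 5′-radiolabelled RNA pool carrying 7 randomized nucleotides, whose flanks were annealed to DNA oligonucleotides, over a series of increasing protein concentrations. Unbound RNA was resolved on 8% native PAGE, cut out, reverse-transcribed, barcoded by PCR and sequenced on an Illumina HiSeq 2500. Relative association constants were derived from changes in read counts for each RNA species versus the control reaction and normalised to the cognate motif.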

Binder	binding signal
B1	0.00855 KA relative to UGCAUGU
B2	0.00998 KA relative to UGCAUGU
B3	0.00777 KA relative to UGCAUGU
B4	0.00574 KA relative to UGCAUGU
B5	0.00152 KA relative to UGCAUGU
B6	0.00217 KA relative to UGCAUGU
B7	0.0182 KA relative to UGCAUGU
B8	0.0158 KA relative to UGCAUGU
B9	0.0108 KA relative to UGCAUGU
B10	0.00422 KA relative to UGCAUGU
B11	0.0161 KA relative to UGCAUGU
B12	0.0142 KA relative to UGCAUGU
B13	0.00918 KA relative to UGCAUGU
B14	0.00457 KA relative to UGCAUGU
B15	0.00515 KA relative to UGCAUGU
B16	0.00796 KA relative to UGCAUGU

Binder	binding signal
B17	0.000629 KA relative to UGCAUGU
B18	0.0186 KA relative to UGCAUGU
B19	0.0127 KA relative to UGCAUGU
B20	0.0192 KA relative to UGCAUGU
B21	0.000809 KA relative to UGCAUGU
B22	0.00158 KA relative to UGCAUGU
B23	0.00729 KA relative to UGCAUGU
B24	0.00559 KA relative to UGCAUGU
B25	0.0171 KA relative to UGCAUGU
B26	0.0075 KA relative to UGCAUGU
B27	0.00231 KA relative to UGCAUGU
B28	0.00276 KA relative to UGCAUGU
B29	0.0162 KA relative to UGCAUGU
B30	0.00363 KA relative to UGCAUGU
B31	0.0068 KA relative to UGCAUGU

— paper PMC9911399, “Two distinct binding modes provide the RNA-binding protein RbFox with extraordinary sequence specificity”
